{"source": "PubChem BioAssay (NCI)", "assay_in_all_cases": "inhibition of tumour cell growth, NCI panel, 48 h", "key": {"HT29 colon": {"tested_on": "HT29 colon"}, "DU-145 prostate": {"tested_on": "DU-145 prostate"}, "KM12 colon": {"tested_on": "KM12 colon"}, "NCI-H226 lung": {"tested_on": "NCI-H226 lung"}, "OVCAR-8 ovarian": {"tested_on": "OVCAR-8 ovarian"}, "NCI/ADR-RES ovarian": {"tested_on": "NCI/ADR-RES ovarian"}, "HCC-2998 colon": {"tested_on": "HCC-2998 colon"}, "MOLT-4 leukemia": {"tested_on": "MOLT-4 leukemia"}, "UO-31 renal": {"tested_on": "UO-31 renal"}, "CAKI-1 renal": {"tested_on": "CAKI-1 renal"}, "NCI-H23 lung": {"tested_on": "NCI-H23 lung"}, "SW-620 colon": {"tested_on": "SW-620 colon"}, "OVCAR-3 ovarian": {"tested_on": "OVCAR-3 ovarian"}, "K-562 leukemia": {"tested_on": "K-562 leukemia"}, "HOP-62 NSCLC": {"tested_on": "HOP-62 NSCLC"}, "IGROV1 ovarian": {"tested_on": "IGROV1 ovarian"}, "LXFL 529 NSCLC": {"tested_on": "LXFL 529 NSCLC"}, "UACC-257 melanoma": {"tested_on": "UACC-257 melanoma"}, "LOX IMVI melanoma": {"tested_on": "LOX IMVI melanoma"}, "SK-OV-3 ovarian": {"tested_on": "SK-OV-3 ovarian"}, "SNB-19 CNS": {"tested_on": "SNB-19 CNS"}, "SF-295 CNS": {"tested_on": "SF-295 CNS"}, "HCT-15 colon": {"tested_on": "HCT-15 colon"}, "A549 NSCLC": {"tested_on": "A549 NSCLC"}, "CCRF-CEM leukemia": {"tested_on": "CCRF-CEM leukemia"}, "NCI-H460 lung": {"tested_on": "NCI-H460 lung"}, "KM20L2 colon": {"tested_on": "KM20L2 colon"}, "SF-268 CNS": {"tested_on": "SF-268 CNS"}, "U251 CNS": {"tested_on": "U251 CNS"}, "A498 renal": {"tested_on": "A498 renal"}, "786-0 renal": {"tested_on": "786-0 renal"}, "SNB-75 CNS": {"tested_on": "SNB-75 CNS"}, "EKVX NSCLC": {"tested_on": "EKVX NSCLC"}, "DLD-1 colon": {"tested_on": "DLD-1 colon"}, "OVCAR-5 ovarian": {"tested_on": "OVCAR-5 ovarian"}, "SF-539 CNS": {"tested_on": "SF-539 CNS"}, "HL-60(TB) leukemia": {"tested_on": "HL-60(TB) leukemia"}}, "note": "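Step 1: Grow cells in 96-well plates. Step 2: Expose to compound for 48 hours at 5 concentrations. Step 3: Interpolate endpoints linearly; if unreached, use highest concentration. GI50 marks 50% less growth.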 For part of its entries the source gives two or more results. This is not the full list of results. There may be further records. For part of these data: The values listed for one entry are repeated measurements in other runs, samples, wells, individuals or studies. What stands in brackets tells the records apart. Letters count within one entry.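 TGI is the concentration that stops growth completely.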 For part of these data: The tests behind the records often covered other concentration ranges, which the source does not state; some values may only mark the edge of a range."}
{"smiles": "COc1ccc2c(c1)C(=O)CCc1cc(OC)c(OC)c(OC)c1-2", "values": [{"measurement": "TGI", "setting": "HT29 colon", "value": "180 nM and 12.1 nM"}, {"measurement": "TGI", "setting": "DU-145 prostate", "value": "237 nM and > 100 µM"}, {"measurement": "TGI", "setting": "KM12 colon", "value": "129 nM and > 100 µM"}, {"measurement": "TGI", "setting": "NCI-H226 lung", "value": "65.9 nM and > 100 µM"}, {"measurement": "TGI", "setting": "OVCAR-8 ovarian", "value": "209 nM and > 100 µM"}, {"measurement": "TGI", "setting": "NCI/ADR-RES ovarian", "value": "51.5 nM and > 100 µM"}, {"measurement": "TGI", "setting": "HCC-2998 colon", "value": "493 nM and > 100 µM"}]}
{"smiles": "CCOC(=O)Nc1cc2c(c(N)n1)N=C(c1ccc(OC)cc1)CN2", "values": [{"measurement": "TGI", "setting": "MOLT-4 leukemia", "value": "0.455 nM and 13 µM"}, {"measurement": "TGI", "setting": "UO-31 renal", "value": "379 nM and > 100 µM"}, {"measurement": "TGI", "setting": "CAKI-1 renal", "value": "16.3 nM and > 100 µM"}, {"measurement": "TGI", "setting": "NCI-H23 lung", "value": "929 nM and 96.2 µM"}, {"measurement": "TGI", "setting": "SW-620 colon", "value": "386 nM and > 100 µM"}]}
{"smiles": "COc1ccc(C2=C[C@]3(O)CCCN3C[C@@H]2c2ccc(OC)c(OC)c2)cc1", "values": [{"measurement": "TGI", "setting": "MOLT-4 leukemia", "value": "0.315 nM and 19.4 nM"}, {"measurement": "TGI", "setting": "OVCAR-3 ovarian", "value": "< 0.1 nM and 351 nM"}, {"measurement": "TGI", "setting": "HT29 colon", "value": "0.288 nM and 23.6 nM"}, {"measurement": "TGI", "setting": "K-562 leukemia", "value": "199 nM and 22.3 µM"}, {"measurement": "TGI", "setting": "HOP-62 NSCLC", "value": "< 0.1 nM and 235 nM"}, {"measurement": "TGI", "setting": "IGROV1 ovarian", "value": "0.159 nM and 474 nM"}, {"measurement": "TGI", "setting": "LXFL 529 NSCLC", "value": "< 0.1 nM and 1.45 µM"}, {"measurement": "TGI", "setting": "UACC-257 melanoma", "value": "1.69 nM and 123 nM"}, {"measurement": "TGI", "setting": "LOX IMVI melanoma", "value": "0.138 nM and 13.2 nM"}, {"measurement": "TGI", "setting": "SK-OV-3 ovarian", "value": "0.571 nM and 260 nM"}, {"measurement": "TGI", "setting": "SNB-19 CNS", "value": "1.01 nM and > 100 µM"}, {"measurement": "TGI", "setting": "SF-295 CNS", "value": "0.501 nM and 24.4 nM"}, {"measurement": "TGI", "setting": "HCT-15 colon", "value": "1.59 nM and 46.5 µM"}, {"measurement": "TGI", "setting": "A549 NSCLC", "value": "1.39 nM and 319 nM"}, {"measurement": "TGI", "setting": "KM12 colon", "value": "0.761 nM and 18.5 nM"}, {"measurement": "TGI", "setting": "CCRF-CEM leukemia", "value": "0.257 nM and 517 nM"}, {"measurement": "TGI", "setting": "NCI-H460 lung", "value": "< 0.1 nM and 24.5 nM"}, {"measurement": "TGI", "setting": "KM20L2 colon", "value": "0.351 nM and 1.21 µM"}, {"measurement": "TGI", "setting": "UO-31 renal", "value": "< 0.1 nM and 132 nM"}, {"measurement": "TGI", "setting": "OVCAR-8 ovarian", "value": "0.196 nM and 184 nM"}, {"measurement": "TGI", "setting": "SF-268 CNS", "value": "0.122 nM and 23.1 nM"}, {"measurement": "TGI", "setting": "U251 CNS", "value": "0.253 nM and 1.31 µM"}, {"measurement": "TGI", "setting": "A498 renal", "value": "< 0.1 nM and 662 nM"}, {"measurement": "TGI", "setting": "786-0 renal", "value": "< 0.1 nM and 115 nM"}, {"measurement": "TGI", "setting": "SNB-75 CNS", "value": "0.682 nM and 23 nM"}, {"measurement": "TGI", "setting": "EKVX NSCLC", "value": "11.9 nM and 10.9 µM"}, {"measurement": "TGI", "setting": "DLD-1 colon", "value": "1.72 nM and 140 nM"}, {"measurement": "TGI", "setting": "OVCAR-5 ovarian", "value": "0.603 nM and 116 nM"}, {"measurement": "TGI", "setting": "SF-539 CNS", "value": "< 0.1 nM and 1.11 µM"}]}
{"smiles": "C=CC(=O)N1CCC(Oc2cc3c(Nc4ccc(Cl)c(Cl)c4F)ncnc3cc2OC)CC1", "values": [{"measurement": "TGI", "setting": "SK-OV-3 ovarian", "value": "< 10 nM [sample A, 1 test] and 181 nM [sample B, mean of 2 tests]"}, {"measurement": "GI50", "setting": "DU-145 prostate", "value": "61.4 nM [sample A, mean of 2 tests] and 906 nM [sample B, mean of 2 tests]"}, {"measurement": "GI50", "setting": "CAKI-1 renal", "value": "< 10 nM [sample A, mean of 2 tests] and 213 nM [sample B, mean of 2 tests]"}]}
{"smiles": "N[C@H](C(=O)O)[C@@H]1CC(Cl)=NO1", "values": [{"measurement": "TGI", "setting": "HL-60(TB) leukemia", "value": "69.2 µM and > 1 mM"}]}
